Reference: the supplement of paper PMC12217912
Some of the results follow. The full chains were built here from the parent and the listed change. Values near 0.05 are background.

B1: TEV protease; numbered along this chain (parent)
chain: MGESLFKGPRDYNPISSSICHLTNESDGHTTSLYGIGFGPFIITNKHLFRRNNGTLVVQSLHGVFKVKDTTTLQQHLVDGRDMIIIRMPKDFPPFPQKLKFREPQREERICLVTTNFQTKSMSSMVSDTSCTFPSGDGIFWKHWIQTKDGQCGSPLVSTRDGFIVGIHSASNFTNTNNYFTSVPKNFMELLTNQEAQQWVSGWRLNADSVLWGGHKVFMVKPEEPFQPVKEATQL

Variants of: B1
Assay: raw area under fraction-flipped curve 0-4 h after induction (AUC4h, not background-subtracted), DNA-recorder readout of cleavage of the substrate (dimensionless); higher = more cleavage of the substrate by the protease variant
Conditions: temperature: 34 °C; time window: 0-4 h after rhamnose induction
Experimental: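 In vivo DNA recorder in E. coli TOP10(DE3) ΔrhaA at 34 °C. Each TEVp single-site mutant (parent TEVp 0) is paired with a single-site variant of the 7-mer TEVs (canonical ENLYFQ|S). The substrate sits between flexible linkers in a Bxb1-sfGFP-TEVs-SsrA fusion, so cleavage stabilises Bxb1 and speeds flipping of a recombination array, read by NGS. The value is the raw area under the fraction-flipped curve over 0-4 h after rhamnose induction (AUC4h), with ≥20 reads per time point. It is not background-subtracted; inactive controls average about 0.047.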
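Also: Bxb1 expression induced with 0.2% (w/v) L-rhamnose at OD600 near 0.5, cultures sampled hourly, flipped fraction per protease–substrate barcode pair counted by paired-end Illumina sequencing.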

Variant	area with substrate ANLYFQS	area with substrate CNLYFQS	area with substrate DNLYFQS	area with substrate HNLYFQS	area with substrate INLYFQS	area with substrate KNLYFQS	area with substrate LNLYFQS	area with substrate PNLYFQS	area with substrate RNLYFQS	area with substrate TNLYFQS	area with substrate WNLYFQS	area with substrate YNLYFQS	area with substrate FNLYFQS	area with substrate MNLYFQS	area with substrate QNLYFQS	area with substrate SNLYFQS	area with substrate VNLYFQS	area with substrate GNLYFQS	area with substrate NNLYFQS
S169F	0.0552	0.0556	0.0518	0.0538	0.0564	0.0561	0.0571	0.0604	0.0361	0.0507	0.05	0.0462	–	–	–	–	–	–	–
I85P	0.0365	0.0365	0.0474	0.0367	0.0143	0.0537	0.0434	0.0321	0.0503	0.0267	0.0087	–	0.0331	0.0292	0.0428	0.0396	0.0444	–	–
D27A	0.0548	0.0617	0.0764	0.075	0.0795	0.0664	0.0623	0.0594	–	0.0595	0.0603	0.0591	0.0534	–	0.0645	0.0747	–	0.068	0.0501
G37P	0.0408	0.0405	0.0547	0.0571	0.0583	0.0429	–	0.0508	–	0.0427	–	–	0.0403	–	–	0.0287	–	0.0589	0.0416
I15C	0.0601	0.0615	0.074	0.069	0.054	0.066	0.0302	0.0643	0.0595	0.0655	0.0513	0.0578	–	0.0713	–	0.0552	0.0594	0.0573	0.0454
F163R	0.0476	0.0762	0.0973	0.0774	0.0634	–	0.0795	0.0783	–	0.0839	0.0677	0.0504	0.0511	0.0495	0.0697	0.0645	–	0.064	0.0801
Q227I	0.0756	0.0587	0.0769	0.0735	0.093	0.0597	–	–	–	–	0.0811	–	0.0669	0.0564	–	–	0.0592	–	0.0691
R102A	0.0482	0.0514	0.0519	0.0462	0.0391	0.0644	0.0543	0.0491	–	0.0583	0.0494	0.0501	–	0.0398	–	0.0599	0.0544	0.0589	0.0536
S26F	0.062	0.0568	0.0613	0.0583	0.053	0.0598	0.0667	0.0583	–	0.0568	0.0626	0.0555	0.0621	–	–	0.0524	0.0555	0.0615	0.0529
G213F	0.0483	0.0587	0.0509	–	0.0453	0.0617	0.0422	0.0599	–	0.0484	0.0514	0.0568	0.0807	0.0688	–	0.0496	–	–	–
M122E	0.0827	0.0683	0.115	0.0697	0.0682	–	0.0599	0.0587	0.0765	0.0536	0.0798	0.0726	–	0.0895	–	0.0824	–	0.062	0.0728
V126W	0.0704	0.0649	0.0826	0.0713	0.0664	0.0665	0.0671	0.0746	0.0766	0.0713	0.0608	0.0638	0.0705	0.0675	0.0951	–	0.0573	0.0728	0.0651
I145F	0.0645	0.0691	0.0769	0.0792	–	0.0777	0.07	–	–	0.0569	0.065	–	–	–	–	–	0.0627	0.0697	–
V113P	0.0653	0.0563	0.0479	0.0517	0.0497	–	0.073	0.0615	–	0.0628	0.0658	0.0468	0.0525	0.0577	–	0.0779	0.0606	0.073	0.0326
L77N	0.0652	0.0564	0.0583	0.0589	0.0799	0.0588	0.0596	0.058	–	0.0559	0.0537	0.0505	0.0601	–	–	0.061	0.0805	0.0463	0.0589
W199H	0.0447	0.0584	0.0615	–	–	0.0593	0.0722	0.058	–	0.0698	–	–	0.0663	0.0599	–	0.0561	–	0.0631	–
S26C	0.061	0.0625	0.0738	0.0606	–	–	0.079	–	–	0.0375	0.07	0.0606	0.0628	–	0.0562	0.0647	–	–	–
Q105M	0.0494	0.0731	0.0818	0.0664	0.0753	–	0.0567	0.0847	–	–	0.0629	0.0654	0.074	0.072	–	0.0463	0.0682	–	0.0787
K100V	0.027	0.0567	0.072	–	–	0.0686	–	0.0572	0.0634	0.0749	0.0621	0.0663	0.0522	–	0.075	–	0.0682	–	0.0661
N206G	0.0745	0.0721	0.0704	0.0543	0.062	–	0.0698	–	–	0.0632	0.059	0.0574	0.0327	0.0722	–	0.0574	0.102	0.0988	0.0641
Q74V	0.0679	0.067	0.0647	0.0581	0.0592	0.066	0.0595	0.047	–	–	0.0627	0.0505	–	0.0569	0.069	0.062	–	0.0654	0.0453
W212K	0.0575	0.0575	0.0653	0.0536	0.0449	0.0411	0.0592	0.0512	0.0697	0.0605	0.0637	0.0596	0.0479	0.0714	–	0.0581	–	–	0.052
V78F	0.0873	0.0677	0.0621	0.0554	0.0541	–	–	–	0.08	–	0.0599	–	–	0.0558	0.064	0.0624	0.0571	0.057	0.0678
E231H	0.0567	0.0911	0.07	0.0573	–	–	0.077	0.0734	–	0.057	0.0623	–	–	0.0538	0.0553	0.078	–	–	–
R51A	0.0926	0.0713	0.0695	–	–	0.0724	–	0.0719	–	0.0631	0.063	0.0805	0.0624	–	–	–	0.0642	0.0623	0.0568
